Data as given in article PMC5892938.
The other results are listed elsewhere or left out. At the low end of the ranking the order means little.
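Also: DESeq read counts versus GST-SBP nonspecific binding control pulldown.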

These sequences were tested against GST-SBP-SLBP (stem-loop binding protein) (UniProt Q14493) (assay: targeted RNA Bind-n-Seq). Conditions: RBNS binding buffer: 25 mM Tris pH 7.5, 150 mM KCl, 3 mM MgCl2, 0.1% Tween, 0.5 mg/mL BSA, 1 mM DTT; 27 nM protein, 750 pM RNA pool; temperature not stated; high values mean tight binding.
Sequence “GGUCACGUCUCAAUCAACUCCUACGAGGGGGGGAAAACCCCUUUACCCUCAUCCUCAACAGCUCGCAGUCAAG” has a binding signal (log2 fold change) of 0.0918.
For “GGUCACGUCUCAAUCAACUCUUUUUCAGGAGUUUGCUCCUGCAUUUUCAACAGCUCGCAGUCAAG”, the binding signal (log2 fold change) was -0.0711.
With “GGUCACGUCUCAAUCAACUCAGUCUCCAGGGAAACCCCUGGUAAAUUCAACAGCUCGCAGUCAAG” the binding signal (log2 fold change) was 0.0173.
For “GGUCACGUCUCAAUCAACUCAGUCUCCAGGGAAAUCCCUGGCAUUUUCAACAGCUCGCAGUCAAG”, the binding signal (log2 fold change) was 0.0949.
For “GGUCACGUCUCAAUCAACUCAUUUUCCAGGGAAAGCCCUGGCUAUCUCAACAGCUCGCAGUCAAG”, the binding signal (log2 fold change) was -0.0239.
With “GGUCACGUCUCAAUCAACUCCAUAGAGGGGGGGAAAACCCCUUUACCCUCCAAUUCAACAGCUCGCAGUCAAG” the binding signal (log2 fold change) was -0.263.
“GGUCACGUCUCAAUCAACUCCAUCGAGGGGGGGAAAACCCCUUUACCCUCACCUUCAACAGCUCGCAGUCAAG” gave a binding signal (log2 fold change) of 0.27.
For “GGUCACGUCUCAAUCAACUCAACUCCAGGAGUUUACUCCUGCUUAUUCAACAGCUCGCAGUCAAG”, the binding signal (log2 fold change) was -0.0524.
“GGUCACGUCUCAAUCAACUCUUCGCCCAGGGAAAACCCUGGUAUAUUCAACAGCUCGCAGUCAAG” gave a binding signal (log2 fold change) of -0.263.
“GGUCACGUCUCAAUCAACUCAUCUCCCAGGGAAAUCCCUGGCAAACUCAACAGCUCGCAGUCAAG” was tested, and the binding signal (log2 fold change) was 0.129.
In the case of “GGUCACGUCUCAAUCAACUCUAUUUCAGGAGUUUACUCCUGUUAUUUCAACAGCUCGCAGUCAAG”, the binding signal (log2 fold change) is reported as 0.0621.
Work on “GGUCACGUCUCAAUCAACUCAUAAGAGGGGGGGAAAACCCCUUUGCCCUCACAUUCAACAGCUCGCAGUCAAG” yielded a binding signal (log2 fold change) of 0.119.
For “GGUCACGUCUCAAUCAACUCUUUUUCAGGAGUUUUCUCCUGUAUUUUCAACAGCUCGCAGUCAAG”, the binding signal (log2 fold change) was -0.146.
“GGUCACGUCUCAAUCAACUCAAGUCCAGGAGUUUUCUCCUGCUAAUUCAACAGCUCGCAGUCAAG” gave a binding signal (log2 fold change) of -0.0445.
“GGUCACGUCUCAAUCAACUCAAGUCCAGGAGUUUACUCCUGCAAAUUCAACAGCUCGCAGUCAAG” was tested, and the binding signal (log2 fold change) was 0.0126.
In the case of “GGUCACGUCUCAAUCAACUCAUCGCCAGGAGUUUUCUCCUGUAAUUUCAACAGCUCGCAGUCAAG”, the binding signal (log2 fold change) is reported as 0.00468.
“GGUCACGUCUCAAUCAACUCACUAGAGGGGGGGAAAACCCCUUUGCCCUCACACUCAACAGCUCGCAGUCAAG” showed a binding signal (log2 fold change) of 0.252.
With “GGUCACGUCUCAAUCAACUCUUCUCCAGGAGUUUACUCCUGCUAAUUCAACAGCUCGCAGUCAAG” the binding signal (log2 fold change) was -0.109.
For “GGUCACGUCUCAAUCAACUCUUUUUCCAGGGAAAGCCCUGGCUAUGUCAACAGCUCGCAGUCAAG”, the binding signal (log2 fold change) was 0.31.
With “GGUCACGUCUCAAUCAACUCUAUUCCCAGGGAAACCCCUGGCAAACUCAACAGCUCGCAGUCAAG” the binding signal (log2 fold change) was 0.0456.
For “GGUCACGUCUCAAUCAACUCAGUCCCAGGAGUUUUCUCCUGCAAUUUCAACAGCUCGCAGUCAAG”, the binding signal (log2 fold change) was -0.0409.
Work on “GGUCACGUCUCAAUCAACUCCUAAGAGGGGGGGAAAACCCCUUUACCCUCCCAUUCAACAGCUCGCAGUCAAG” yielded a binding signal (log2 fold change) of 0.0891.
Sequence “GGUCACGUCUCAAUCAACUCAGUCCCCAGGGAAAGCCCUGGCUUAUUCAACAGCUCGCAGUCAAG” has a binding signal (log2 fold change) of 0.0159.
Work on “GGUCACGUCUCAAUCAACUCAAAAGAGGGGGGGAAAACCCCUUUACCCUCCGUAUCAACAGCUCGCAGUCAAG” yielded a binding signal (log2 fold change) of 0.155.
“GGUCACGUCUCAAUCAACUCUUCCGAGGGGGGGAAAACCCCUUUACCCUCUUUAUCAACAGCUCGCAGUCAAG” gave a binding signal (log2 fold change) of -0.525.
In the case of “GGUCACGUCUCAAUCAACUCUACUCCAGGAGUUUACUCCUGCUUUUUCAACAGCUCGCAGUCAAG”, the binding signal (log2 fold change) is reported as 0.0187.
Work on “GGUCACGUCUCAAUCAACUCAUUUUCAGGAGUUUUCUCCUGUAUAUUCAACAGCUCGCAGUCAAG” yielded a binding signal (log2 fold change) of -0.0694.
Sequence “GGUCACGUCUCAAUCAACUCACUCGAGGGGGGGAAAACCCCUUUACCCUCAAUUUCAACAGCUCGCAGUCAAG” has a binding signal (log2 fold change) of -0.264.
Sequence “GGUCACGUCUCAAUCAACUCCCUAGAGGGGGGGAAAACCCCUUUGCCCUCAUCGUCAACAGCUCGCAGUCAAG” has a binding signal (log2 fold change) of 0.292.
“GGUCACGUCUCAAUCAACUCACACGAGGGGGGGAAAACCCCUUUACCCUCUUCUUCAACAGCUCGCAGUCAAG” was tested, and the binding signal (log2 fold change) was 0.0647.
With “GGUCACGUCUCAAUCAACUCUUCAGAGGGGGGGAAAACCCCUUUGCCCUCAUAUUCAACAGCUCGCAGUCAAG” the binding signal (log2 fold change) was -0.138.
Sequence “GGUCACGUCUCAAUCAACUCUACUCCAGGAGUUUUCUCCUGUAAAUUCAACAGCUCGCAGUCAAG” has a binding signal (log2 fold change) of -0.162.
Sequence “GGUCACGUCUCAAUCAACUCCCUAGAGGGGGGGAAAACCCCUUUACCCUCCACAUCAACAGCUCGCAGUCAAG” has a binding signal (log2 fold change) of -0.186.
Sequence “GGUCACGUCUCAAUCAACUCCCAAGAGGGGGGGAAAACCCCUUUACCCUCACCGUCAACAGCUCGCAGUCAAG” has a binding signal (log2 fold change) of -0.0128.
“GGUCACGUCUCAAUCAACUCAAUAGAGGGGGGGAAAACCCCUUUACCCUCAAAAUCAACAGCUCGCAGUCAAG” showed a binding signal (log2 fold change) of -0.255.
With “GGUCACGUCUCAAUCAACUCUUUUCCCAGGGAAAUCCCUGGUAUGUUCAACAGCUCGCAGUCAAG” the binding signal (log2 fold change) was 0.148.
With “GGUCACGUCUCAAUCAACUCUUUCCCCAGGGAAAUCCCUGGCAUAUUCAACAGCUCGCAGUCAAG” the binding signal (log2 fold change) was 0.00216.
Work on “GGUCACGUCUCAAUCAACUCAACUCCAGGAGUUUCCUCCUGCUUACUCAACAGCUCGCAGUCAAG” yielded a binding signal (log2 fold change) of 0.271.
For “GGUCACGUCUCAAUCAACUCAUUCUCAGGAGUUUACUCCUGCUAACUCAACAGCUCGCAGUCAAG”, the binding signal (log2 fold change) was -0.0115.
Sequence “GGUCACGUCUCAAUCAACUCUAAAGAGGGGGGGAAAACCCCUUUACCCUCCGUAUCAACAGCUCGCAGUCAAG” has a binding signal (log2 fold change) of -0.192.
“GGUCACGUCUCAAUCAACUCUUCCUCAGGAGUUUCCUCCUGUUAACUCAACAGCUCGCAGUCAAG” showed a binding signal (log2 fold change) of -0.0571.
“GGUCACGUCUCAAUCAACUCAUCCUCCAGGGAAAGCCCUGGCUUAUUCAACAGCUCGCAGUCAAG” showed a binding signal (log2 fold change) of 0.233.
Sequence “GGUCACGUCUCAAUCAACUCAGAAGAGGGGGGGAAAACCCCUUUGCCCUCCAUAUCAACAGCUCGCAGUCAAG” has a binding signal (log2 fold change) of 0.327.
In the case of “GGUCACGUCUCAAUCAACUCAUUCUCAGGAGUUUCCUCCUGUUAACUCAACAGCUCGCAGUCAAG”, the binding signal (log2 fold change) is reported as 0.007.
Work on “GGUCACGUCUCAAUCAACUCUUUUCCCAGGGAAACCCCUGGCAAAUUCAACAGCUCGCAGUCAAG” yielded a binding signal (log2 fold change) of 0.0061.
Work on “GGUCACGUCUCAAUCAACUCUUUUUCAGGAGUUUACUCCUGUAAUUUCAACAGCUCGCAGUCAAG” yielded a binding signal (log2 fold change) of -0.22.
In the case of “GGUCACGUCUCAAUCAACUCAUUCUCAGGAGUUUUCUCCUGCUUUGUCAACAGCUCGCAGUCAAG”, the binding signal (log2 fold change) is reported as 0.116.
“GGUCACGUCUCAAUCAACUCAAAAGAGGGGGGGAAAACCCCUUUACCCUCCUUAUCAACAGCUCGCAGUCAAG” was tested, and the binding signal (log2 fold change) was 0.244.
For “GGUCACGUCUCAAUCAACUCAUUCUCAGGAGUUUACUCCUGUAUACUCAACAGCUCGCAGUCAAG”, the binding signal (log2 fold change) was -0.0344.
“GGUCACGUCUCAAUCAACUCUAUCCCAGGAGUUUUCUCCUGCAAUCUCAACAGCUCGCAGUCAAG” was tested, and the binding signal (log2 fold change) was -0.0532.
In the case of “GGUCACGUCUCAAUCAACUCUAUGGCCAGGGAAAACCCUGGGAAAUUCAACAGCUCGCAGUCAAG”, the binding signal (log2 fold change) is reported as -0.0425.
“GGUCACGUCUCAAUCAACUCAUUCCCAGGAGUUUACUCCUGUUUAUUCAACAGCUCGCAGUCAAG” was tested, and the binding signal (log2 fold change) was 0.0478.
With “GGUCACGUCUCAAUCAACUCUAUCUCAGGAGUUUCCUCCUGUAAACUCAACAGCUCGCAGUCAAG” the binding signal (log2 fold change) was -0.0898.
With “GGUCACGUCUCAAUCAACUCAUUCUCAGGAGUUUGCUCCUGCAUUUUCAACAGCUCGCAGUCAAG” the binding signal (log2 fold change) was -0.0661.
“GGUCACGUCUCAAUCAACUCACAAGAGGGGGGGAAAACCCCUUUACCCUCAUCUUCAACAGCUCGCAGUCAAG” was tested, and the binding signal (log2 fold change) was 0.138.
“GGUCACGUCUCAAUCAACUCUUUUUCCAGGGAAAGCCCUGGCAUUCUCAACAGCUCGCAGUCAAG” showed a binding signal (log2 fold change) of 0.115.
“GGUCACGUCUCAAUCAACUCAAUUUCAGGAGUUUGCUCCUGUAUACUCAACAGCUCGCAGUCAAG” gave a binding signal (log2 fold change) of 0.0406.
Sequence “GGUCACGUCUCAAUCAACUCUUCCUCAGGAGUUUCCUCCUGCAUUUUCAACAGCUCGCAGUCAAG” has a binding signal (log2 fold change) of -0.0345.
“GGUCACGUCUCAAUCAACUCUUAAGAGGGGGGGAAAACCCCUUUGCCCUCACAUUCAACAGCUCGCAGUCAAG” gave a binding signal (log2 fold change) of -0.00592.
Sequence “GGUCACGUCUCAAUCAACUCUACUUCAGGAGUUUUCUCCUGCAUAUUCAACAGCUCGCAGUCAAG” has a binding signal (log2 fold change) of -0.00818.
“GGUCACGUCUCAAUCAACUCCUCUGAGGGGGGGAAAACCCCUUUACCCUCUAAAUCAACAGCUCGCAGUCAAG” showed a binding signal (log2 fold change) of 0.27.
In the case of “GGUCACGUCUCAAUCAACUCACAAGAGGGGGGGAAAACCCCUUUACCCUCAUAUUCAACAGCUCGCAGUCAAG”, the binding signal (log2 fold change) is reported as -0.145.
For “GGUCACGUCUCAAUCAACUCAUAAGAGGGGGGGAAAACCCCUUUACCCUCCAAUUCAACAGCUCGCAGUCAAG”, the binding signal (log2 fold change) was -0.29.
Sequence “GGUCACGUCUCAAUCAACUCUUCUUCCAGGGAAAUCCCUGGUAAUGUCAACAGCUCGCAGUCAAG” has a binding signal (log2 fold change) of 0.129.
In the case of “GGUCACGUCUCAAUCAACUCUUCCUCCAGGGAAAUCCCUGGCUAACUCAACAGCUCGCAGUCAAG”, the binding signal (log2 fold change) is reported as -0.0104.
In the case of “GGUCACGUCUCAAUCAACUCAAUCUCCAGGGAAAACCCUGGUAAUCUCAACAGCUCGCAGUCAAG”, the binding signal (log2 fold change) is reported as 0.134.
Work on “GGUCACGUCUCAAUCAACUCAUCCCCAGGAGUUUACUCCUGUAUAUUCAACAGCUCGCAGUCAAG” yielded a binding signal (log2 fold change) of -0.0743.
Work on “GGUCACGUCUCAAUCAACUCAAUCUCAGGAGUUUACUCCUGUUUAUUCAACAGCUCGCAGUCAAG” yielded a binding signal (log2 fold change) of 0.106.
“GGUCACGUCUCAAUCAACUCUAUUUCCAGGGAAAGCCCUGGUUAAUUCAACAGCUCGCAGUCAAG” was tested, and the binding signal (log2 fold change) was -0.219.
“GGUCACGUCUCAAUCAACUCUUCCUCAGGAGUUUACUCCUGUAAUCUCAACAGCUCGCAGUCAAG” showed a binding signal (log2 fold change) of -0.0707.
“GGUCACGUCUCAAUCAACUCAAUCCCCAGGGAAACCCCUGGUAUAUUCAACAGCUCGCAGUCAAG” gave a binding signal (log2 fold change) of 0.0769.
Work on “GGUCACGUCUCAAUCAACUCCUACGAGGGGGGGAAAACCCCUUUACCCUCAUCAUCAACAGCUCGCAGUCAAG” yielded a binding signal (log2 fold change) of 0.348.
“GGUCACGUCUCAAUCAACUCUUCUUCCAGGGAAACCCCUGGUAAAUUCAACAGCUCGCAGUCAAG” gave a binding signal (log2 fold change) of -0.33.
